# Some of the results follow.
# Legend:
# Assay in all cases: glycan array binding signal (z-score within array); higher = stronger binding
# Conditions in all cases: glycan notation: IUPAC condensed, linker removed
# [1] = target: Fuc(a1-2)Gal(b1-4)GlcNAc(b1-3)Gal(b1-4)GlcNAc(b1-3)Gal(b1-4)GlcNAc
# Outline: (§1)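 The binding signal is a Z-score computed within each array. Data were drawn from 3228 arrays in the Consortium for Functional Glycomics database, restricted to those with a known protein sequence. Scores were averaged over arrays of the same protein sequence at different concentrations or buffers, and over linkers, and negative values can be taken as non-binding.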
# [2] = target: Fuc(a1-2)Gal(b1-4)GlcNAc(b1-3)GalNAc
# Outline: as §1
# [3] = target: Fuc(a1-2)Gal(b1-4)GlcNAc(b1-3)[Fuc(a1-2)Gal(b1-4)GlcNAc(b1-6)]GalNAc
# Outline: as §1
# [4] = target: Fuc(a1-2)Gal(b1-4)GlcNAc(b1-3)[Fuc(a1-3)[Gal(b1-4)]GlcNAc(b1-6)]Gal(b1-4)Glc
# Outline: as §1
# [5] = target: Fuc(a1-2)Gal(b1-4)GlcNAc(b1-6)GalNAc
# Outline: as §1
# [6] = target: Fuc(a1-2)Gal(b1-4)GlcNAc6S
# Outline: as §1
# [7] = target: Fuc(a1-2)Gal(b1-4)[Fuc(a1-3)]GlcNAc
# Outline: as §1
# [8] = target: Fuc(a1-2)Gal(b1-4)[Fuc(a1-3)]GlcNAc(b1-2)Man(a1-3)[Fuc(a1-2)Gal(b1-4)[Fuc(a1-3)]GlcNAc(b1-2)Man(a1-6)]Man(b1-4)GlcNAc(b1-4)[Fuc(a1-6)]GlcNAc
# Outline: as §1
# [9] = target: Fuc(a1-2)Gal(b1-4)[Fuc(a1-3)]GlcNAc(b1-2)[Fuc(a1-2)Gal(b1-4)[Fuc(a1-3)]GlcNAc(b1-4)]Man(a1-3)[Fuc(a1-2)Gal(b1-4)[Fuc(a1-3)]GlcNAc(b1-2)Man(a1-6)]Man(b1-4)GlcNAc(b1-4)GlcNAc
# Outline: as §1
# [10] = target: Fuc(a1-2)Gal(b1-4)[Fuc(a1-3)]GlcNAc(b1-3)Gal(b1-4)[Fuc(a1-3)]GlcNAc
# Outline: as §1
# [11] = target: Fuc(a1-2)Gal(b1-4)[Fuc(a1-3)]GlcNAc(b1-3)Gal(b1-4)[Fuc(a1-3)]GlcNAc(b1-3)Gal(b1-4)[Fuc(a1-3)]GlcNAc
# Outline: as §1
# [12] = target: Fuc(a1-2)Gal(b1-4)[Fuc(a1-3)]GlcNAc(b1-3)GalNAc
# Outline: as §1
# [13] = target: Fuc(a1-2)Gal(b1-4)[Fuc(a1-3)]GlcNAc(b1-3)[Neu5Ac(a2-6)Gal(b1-4)GlcNAc(b1-6)]Gal(b1-4)Glc
# Outline: as §1
# [14] = target: Fuc(a1-2)Gal3S(b1-4)GlcNAc
# Outline: as §1
# [15] = target: Fuc(a1-2)Gal6S(b1-3)GlcNAc
# Outline: as §1
# [16] = target: Fuc(a1-2)Gal6S(b1-3)GlcNAc6S
# Outline: as §1
# Fuc(a1-2)Gal6S(b1-4)Glc = target: Fuc(a1-2)Gal6S(b1-4)Glc
# Outline: as §1
# [17] = target: Fuc(a1-2)Gal6S(b1-4)Glc6S
# Outline: as §1
# Fuc(a1-2)[Gal(a1-3)]Gal = target: Fuc(a1-2)[Gal(a1-3)]Gal
# Outline: as §1
# [18] = target: Fuc(a1-2)[Gal(a1-3)]Gal(b1-3)GalNAc
# Outline: as §1
# [19] = target: Fuc(a1-2)[Gal(a1-3)]Gal(b1-3)GalNAc(b1-3)Gal(a1-4)Gal(b1-4)Glc
# Outline: as §1
# [20] = target: Fuc(a1-2)[Gal(a1-3)]Gal(b1-3)GlcNAc
# Outline: as §1
# [21] = target: Fuc(a1-2)[Gal(a1-3)]Gal(b1-3)GlcNAc(b1-2)Man(a1-3)[Fuc(a1-2)[Gal(a1-3)]Gal(b1-3)GlcNAc(b1-2)Man(a1-6)]Man(b1-4)GlcNAc(b1-4)GlcNAc
# Outline: as §1
# [22] = target: Fuc(a1-2)[Gal(a1-3)]Gal(b1-3)GlcNAc(b1-2)Man(a1-3)[Fuc(a1-2)[Gal(a1-3)]Gal(b1-3)GlcNAc(b1-2)Man(a1-6)]Man(b1-4)GlcNAc(b1-4)[Fuc(a1-6)]GlcNAc
# Outline: as §1
# [23] = target: Fuc(a1-2)[Gal(a1-3)]Gal(b1-3)GlcNAc(b1-3)GalNAc
# Outline: as §1
# [24] = target: Fuc(a1-2)[Gal(a1-3)]Gal(b1-3)GlcNAc(b1-6)GalNAc
# Outline: as §1
# [25] = target: Fuc(a1-2)[Gal(a1-3)]Gal(b1-4)Glc
# Outline: as §1
# [26] = target: Fuc(a1-2)[Gal(a1-3)]Gal(b1-4)GlcNAc
# Outline: as §1
# [27] = target: Fuc(a1-2)[Gal(a1-3)]Gal(b1-4)GlcNAc(b1-2)Man
# Outline: as §1
# [28] = target: Fuc(a1-2)[Gal(a1-3)]Gal(b1-4)GlcNAc(b1-2)Man(a1-3)[Fuc(a1-2)[Gal(a1-3)]Gal(b1-4)GlcNAc(b1-2)Man(a1-6)]Man(b1-4)GlcNAc(b1-4)GlcNAc
# Outline: as §1
binder,measurement,setting,value
Mermaid3 (Stilbonema majum) (protein) MGSSHHHHHHSSGLVPRGSHMAASGWLRSPQGTVVKLYRRSLSWSKADEFCKDVDGRLVVDRTADMHLFLIKNVLKEKKSRVWVGLRRTASHSRTWIWSDGTRQNEGDLDANLWLRDEPNDAAGEEECALFMYSPWEKAWGLNDYLCRGGCRNYQFICEKWIR,glycan array binding signal (z-score),[1],-0.609
same,glycan array binding signal (z-score),[2],0.007
same,glycan array binding signal (z-score),[3],0.347
same,glycan array binding signal (z-score),[4],-0.185
same,glycan array binding signal (z-score),[5],0.013
same,glycan array binding signal (z-score),[6],-0.614
same,glycan array binding signal (z-score),[7],-0.32
same,glycan array binding signal (z-score),[8],-0.641
same,glycan array binding signal (z-score),[9],-0.175
same,glycan array binding signal (z-score),[10],-0.221
same,glycan array binding signal (z-score),[11],-0.106
same,glycan array binding signal (z-score),[12],-0.366
same,glycan array binding signal (z-score),[13],-0.146
same,glycan array binding signal (z-score),[14],-0.003
same,glycan array binding signal (z-score),[15],-0.256
same,glycan array binding signal (z-score),[16],2.47
same,glycan array binding signal (z-score),Fuc(a1-2)Gal6S(b1-4)Glc,-0.591
same,glycan array binding signal (z-score),[17],-0.662
same,glycan array binding signal (z-score),Fuc(a1-2)[Gal(a1-3)]Gal,-0.559
same,glycan array binding signal (z-score),[18],1.47
same,glycan array binding signal (z-score),[19],-0.018
same,glycan array binding signal (z-score),[20],-0.379
same,glycan array binding signal (z-score),[21],-0.331
same,glycan array binding signal (z-score),[22],0.272
same,glycan array binding signal (z-score),[23],-0.628
same,glycan array binding signal (z-score),[24],0.092
same,glycan array binding signal (z-score),[25],0.553
same,glycan array binding signal (z-score),[26],-0.174
same,glycan array binding signal (z-score),[27],-0.175
same,glycan array binding signal (z-score),[28],-0.617

# Reference: the supplement of paper PMC8728848
